# Data published in the supplement of paper PMC10126150.
# Values marked as one replicate rest on one cluster of the flow cell; about a third of the high ones do not repeat.
# Tested on: ATP
# Test: switch fluorescence ratio, 500 uM ATP over buffer (Cy3 cluster intensity, sum of 5 cycles each) (fold (ratio)); higher = stronger signal-on switching upon ATP binding; sequences stand for … in TCGTCGGCAGCGTCAGATGTGTATAAGAGACAGTTTTTTTTTTTTTTTTTTTTTTTTT…TC
# Conditions: aptamer strand: ATP DNA aptamer (quencher-CACCTGGGGGAGTATTGCGGAGGAAGG + anchor), 100 nM annealed; ATP concentration: 500 uM; one replicate
# In short: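 For every switch-domain sequence, the fluorescence ratio is the mean of per-cluster values, each being summed target-cycle Cy3 intensity over summed buffer-cycle Cy3 intensity. Clusters outside 100-1000 RFU were excluded. On a modified Illumina MiSeq flow-cell, the Cy3-labelled switching-strand clusters were annealed to 100 nM quencher-labelled ATP aptamer, imaged in selection buffer and then after 15 min with 500 uM ATP at 22 °C. Five such cycles were run, with NaOH stripping and re-annealing between them.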
# 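Note: ATP exposure 15 min at 22 °C before imaging.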
row,Sequence,switch fluorescence ratio
1,CACCCCCTTG,1.38
2,CACCCCG,1.55
3,CACCGTCCGG,1.04
4,CACCGTCCTC,1.83
5,CACCGTTAGA,1.05
6,CACCTCCGTA,1.96
7,CACCTGGGC,1.09
8,CACGAATCTA,1.05
9,CACGACAAAA,1.31
10,CACGACGGTC,1.15
11,CACGACGTAG,1.03
12,CACGACTAAA,1.08
13,CACGAGATGG,1.06
14,CACGAGCCAC,1.17
15,CACGAGGTA,0.976
16,CACGAGTCTA,1.01
17,CACGATGACA,1.05
18,CACGCAGTCG,1.05
19,CACGCGTTTC,1.12
20,CACGCTGTCC,1.28
21,CACGGAAGGC,1.92
22,CACGGACGGT,1.39
23,CACGGAGGTC,1.01
24,CACGGGAGCA,1.02
25,CACGGGATTG,1.14
26,CACGGGCCAT,1.04

row,Sequence,switch fluorescence ratio
1,CACGGGGACA,1.08
2,CACGGGTCCA,1.01
3,CACGGGTTCG,1.02
4,CACGGTGCAT,0.995
5,CACGGTTTAG,0.988
6,CACGTACTGC,1.58
7,CACGTCTTGT,0.974
8,CACGTTAAGA,1.17
9,CACGTTGGGA,0.968
10,CACTAAAGGA,0.999
11,CACTAACATG,1.11
12,CACTACTACG,1.12
13,CACTAGCGGG,1.01
14,CACTATTGAT,1
15,CACTCAGTAT,0.994
16,CACTCATAAC,1
17,CACTCGCGGA,1.05
18,CACTGGATG,0.988
19,CACTGTCTTC,1.03
20,CACTGTGAGA,1.03
21,CACTGTGCGA,1.13
22,CACTTAGCTG,1.06
23,CACTTCCCCA,1.26
24,CACTTGGCGG,0.996
25,CACTTTTCGC,0.988
26,CAGAAACATT,0.967

row,Sequence,switch fluorescence ratio
1,CAGAAACGTG,0.962
2,CAGAACTTGC,1.07
3,CAGAAGATTG,1.03
4,CAGAAGTATG,1.02
5,CAGACATCTT,1.02
6,CAGACGCAGA,3.95
7,CAGACGCGTC,1.03
8,CAGACTCGTG,1.04
9,CAGAGCATCG,0.986
10,CAGAGGGCGT,0.982
11,CAGAGGTCTT,0.957
12,CAGAGGTGTT,1.1
13,CAGAGTCCGT,1.03
14,CAGAGTTGCT,0.949
15,CAGATACGGG,0.991
16,CAGATCAGAA,0.999
17,CAGATGGCTT,1.03
18,CAGATGTGAG,1.01
19,CAGCAACATT,1.23
20,CAGCAACGG,1.02
21,CAGCAATCAG,2.8
22,CAGCACGGGT,0.999
23,CAGCAGACAG,0.996
24,CAGCATACAT,1.17
25,CAGCCACAGC,1.02
26,CAGCCCCCGC,1.11

row,Sequence,switch fluorescence ratio
1,CAGCCCGCCT,1.02
2,CAGCCGTCGG,1.03
3,CAGCCTATTA,0.995
4,CAGCCTGCTA,1.05
5,CAGCCTGTCT,0.989
6,CAGCGAAGTT,1.08
7,CAGCGATAGT,1.44
8,CAGCGCTCCG,1.14
9,CAGCGGGAAA,1.06
10,CAGCGGGCTA,1.04
11,CAGCGTGGGA,1.03
12,CAGCTCGGCG,0.981
13,CAGCTGCGAG,1.06
14,CAGCTGCTTA,0.957
15,CAGCTTCTAA,0.98
16,CAGGAAAGTC,1.1
17,CAGGAAGTCC,1
18,CAGGAAGTCT,1.02
19,CAGGAATAG,1.63
20,CAGGAATAGA,1.02
21,CAGGACACTT,1.02
22,CAGGAGGTAT,1.06
23,CAGGATAGGG,0.98
24,CAGGATATAA,1.04
25,CAGGATGCTT,0.984
26,CAGGATGGTT,0.973

row,Sequence,switch fluorescence ratio
1,CAGGCAAGGT,1.03
2,CAGGCATAAA,1.03
3,CAGGCGGACC,1
4,CAGGCGGCTT,1.04
5,CAGGCTATGC,0.941
6,CAGGGCCGGA,0.965
7,CAGGGGCAG,1.06
8,CAGGGGGAGA,0.999
9,CAGGGTATGC,0.997
10,CAGGGTGCGA,1.04
11,CAGGGTGTCG,1.04
12,CAGGGTTCTG,0.951
13,CAGGTAGGGC,1.01
14,CAGGTCCTTG,1.03
15,CAGGTCTCGG,1.02
16,CAGGTGAACG,1.16
17,CAGGTGATAA,1.12
18,CAGGTGTCGT,1.04
19,CAGGTTCATC,1.01
20,CAGGTTCTGG,0.969
21,CAGGTTGATT,0.994
22,CAGGTTTACT,0.995
23,CAGTAACGAA,1.04
24,CAGTACACC,1.03
25,CAGTACTAGC,1
26,CAGTAGGG,0.999

row,Sequence,switch fluorescence ratio
1,CAGTAGGGGC,1.01
2,CAGTATGAGC,1.04
3,CAGTATGTCT,0.956
4,CAGTCATGTA,0.983
5,CAGTCCATTG,1.01
6,CAGTCGAGTC,0.967
7,CAGTCGGGTA,0.972
8,CAGTCGTCGG,1.01
9,CAGTCTACTG,1.02
10,CAGTCTAGTA,1.02
11,CAGTCTCCC,1.04
12,CAGTCTGAGT,0.973
13,CAGTCTGCAC,1.23
14,CAGTCTGGGA,0.978
15,CAGTGAAGAA,0.997
16,CAGTGACCCG,0.99
17,CAGTGACGGG,1
18,CAGTGCCGGA,0.951
19,CAGTGCGAGT,1.02
20,CAGTGGCAG,0.972
21,CAGTGGGAGG,0.966
22,CAGTGTACAT,1.08
23,CAGTGTACTG,1.01
